{"source": "PubChem BioAssay AID624418", "about": "(National Center for Advancing Translational Sciences (NCATS), 2012)", "note": "Out of some 410,000 compounds screened, about 530 (0.13%) were called active. Inconclusive results, whose numbers are uncertain, are shown with a selection of clear calls. Calls follow the shape of the dose curve; as a rule, active = well fitted inhibition curve with a large enough effect; inconclusive = small, poorly fitted or top-dose-only effect, or another doubt; inactive = no such curve, though single readings can be large or run the other way. Potencies of inconclusive entries are doubtful fits and often do not repeat. % is scaled to controls: 0 for no effect and ±100 for the full control effect; potency is read from the fitted curve at half-maximal effect.", "data": [{"experiment": "qHTS of GLP-1 Receptor Inverse Agonists: Cytotox Screen", "conditions": "HEK293 cAMP-luciferase reporter cells, luminescence, 24 h; activity change, negative = inhibition: at 38.3 µM (top of the series) unless noted", "summary_of_the_method": "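MLSMR compounds, 24 hr on cells at 37 deg C/5% CO2; luminescence after luciferase reagent (12 min RT). Inhibition counted as the undesired cytotoxic outcome.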", "values": [{"smiles": "CC(C)CNC(=O)/C(C#N)=C1\\N=C(NC(=O)c2ccco2)c2ccccc21", "Potency": "inactive"}, {"smiles": "COc1ccc(OCCN(C)Cc2ccccc2)cc1", "Potency": "inactive"}, {"smiles": "CCOc1ccc(NC(=O)CN(C)C(=O)c2cc([N+](=O)[O-])ccc2N2CCCCC2)cc1OCC", "Potency": "inconclusive: 11.2 µM [inhibitor, single point]"}, {"smiles": "O=C(CSc1ccc(-c2ccccn2)nn1)NCc1ccc(F)cc1", "Potency": "inactive"}, {"smiles": "Cc1ccccc1NS(=O)(=O)c1ccc(C(=O)NCC2(N3CCOCC3)CCCCC2)cc1", "Potency": "inactive"}, {"smiles": "CC(C)n1c(=O)c2ccccc2n1Cc1cn(C2CCCC2)nn1", "Potency": "inactive"}, {"smiles": "O=C(N/N=C/c1coc2ccccc2c1=O)c1cccc([N+](=O)[O-])c1", "Potency": "inactive"}, {"smiles": "COc1ccc(C2CC(=O)N(CC(=O)Nc3ccc(C)c(Cl)c3)c3ccccc3S2)cc1OC", "note": "(stereo not given)", "Potency": "inactive"}, {"smiles": "N#CC1(NC(=O)COC(=O)c2cc([N+](=O)[O-])ccc2N2CCOCC2)CCCCC1", "Potency": "inconclusive: 28.2 µM [inhibitor, single point]"}, {"smiles": "COc1ccc(N(Cc2cccs2)C(=O)Nc2cccc(Cl)c2)cc1", "Potency": "inactive"}, {"smiles": "O=C(NCc1ccc2c(c1)OCO2)Nc1ccc([N+](=O)[O-])cc1", "Potency": "inconclusive: 7.94 µM [inhibitor, partial curve, poor fit]"}, {"smiles": "CCOc1ccc(Br)cc1/C(C)=N\\NC1=NCCN1", "Potency": "inconclusive: 7.94 µM [inhibitor, partial curve]"}, {"smiles": "CCOC(=O)C1=C(C)N(C)C(=S)NC1c1ccc(Cl)cc1Cl", "note": "(stereo not given)", "Potency": "inconclusive: 28.2 µM [inhibitor, single point]"}, {"smiles": "CCCn1c(=O)[nH]c(=O)c2c1nc(-c1ccc3c(c1)OCCO3)n2CCN1CCOCC1", "Potency": "inactive"}, {"smiles": "CC(=O)NNc1ncnc2c1cnn2-c1ccc(C)c(Cl)c1", "Potency": "inactive"}, {"smiles": "O=C(Nc1cccc(/C=C/c2ccccn2)c1)c1ccc(-n2cncn2)c([N+](=O)[O-])c1", "Potency": "inconclusive: 31.6 µM [inhibitor, partial curve, poor fit]"}, {"smiles": "CCN(CC)S(=O)(=O)c1ccc(NN)nc1", "Potency": "inconclusive: 14.1 µM [inhibitor, single point]"}, {"smiles": "CCN(CC)c1ccc(C2C3CCCCC3(O)CCN2CC(=O)N2CCCCC2)cc1", "note": "(stereo not given)", "Potency": "inconclusive: 31.6 µM [inhibitor, single point]"}, {"smiles": "COc1ccccc1CC1(C)C(=O)Nc2ccc(OC(F)(F)F)cc21", "note": "(stereo not given)", "Potency": "inconclusive: 28.2 µM [inhibitor, single point]"}, {"smiles": "CCS(=O)(=O)Nc1ccc(C2=NN(C(=O)c3ccco3)C(c3ccco3)C2)cc1", "note": "(stereo not given)", "Potency": "inconclusive: 11.2 µM [inhibitor, single point]"}, {"smiles": "O=C(Nc1nccs1)c1ccc(-c2ccc(Cl)cc2)o1", "Potency": "inconclusive: 28.2 µM [inhibitor, single point]"}, {"smiles": "CN(C)c1ccc(/C=N/NC(N)=S)cc1[N+](=O)[O-]", "Potency": "inactive"}, {"smiles": "O=C(O)COc1ccc(/C=N/Nc2nc(Nc3ccccc3)nc(N3CCCCC3)n2)cc1", "Potency": "inconclusive: 10 µM [inhibitor, partial curve, poor fit]"}, {"smiles": "CCCCC1CCC(C(=O)N2CC(=O)Nc3ccc(C)cc3C2c2ccc(F)cc2)CC1", "note": "(stereo not given)", "Potency": "inactive"}, {"smiles": "O=c1[nH][nH]c(C(F)(F)F)c1C=Nc1ccc(Cl)cc1", "Potency": "inactive"}, {"smiles": "CCOC(=O)C1CCN(Cc2ccc(Cl)c(Cl)c2)CC1", "Potency": "inactive"}, {"smiles": "CC1(C(=O)NCc2ccccc2)Cc2c(-c3cccc(C(N)=O)c3)ccnc2O1", "note": "(stereo not given)", "Potency": "inconclusive: 2.24 µM [inhibitor, full curve, poor fit]"}, {"smiles": "Cc1ccc(-c2nnc(N3CCN(C(=O)CN4CCOCC4)CC3)c3ccccc23)cc1", "Potency": "inconclusive: 7.08 µM [inhibitor, partial curve, poor fit]"}, {"smiles": "C/C(=N\\N1C(=O)c2ccccc2NC1c1ccccc1)c1ccccc1O", "note": "(stereo not given)", "Potency": "inconclusive: 1.12 µM [inhibitor, full curve, poor fit]"}, {"smiles": "Cc1cc(NC(=O)CSc2nc3ccsc3c(=O)n2CCCC(=O)NCCc2ccccc2)no1", "Potency": "inconclusive: 20 µM [inhibitor, single point]"}, {"smiles": "Cc1cc(-c2nn(-c3ccccc3F)cc2CN2CCN(c3ccncc3)CC2)c(C)s1", "Potency": "inconclusive: 28.2 µM [inhibitor, single point]"}, {"smiles": "COCCC1CCCCN1C(=O)c1cc(COc2ccc(-n3cncn3)cc2)on1", "note": "(stereo not given)", "Potency": "inactive"}, {"smiles": "O=C(Nc1nc(-c2nc3ccccc3s2)cs1)C1CC1", "Potency": "inconclusive: 2.82 µM [inhibitor, partial curve, poor fit]"}, {"smiles": "CC(=O)NC(=S)Nc1ccc(S(=O)(=O)Nc2ncccn2)cc1", "Potency": "inconclusive: 0.316 µM [inhibitor, full curve, poor fit]"}, {"smiles": "CCOc1ccccc1CNC(=O)C1CCCN(c2nnc(C)c3c(C)n(-c4ccccc4)nc23)C1", "note": "(stereo not given)", "Potency": "inconclusive: 5.62 µM [inhibitor, partial curve]"}, {"smiles": "O=C(CSc1nnc(COc2ccc(Br)cc2)o1)N1CCOCC1", "Potency": "inconclusive: 10 µM [inhibitor, single point]"}, {"smiles": "CC(C)(C)c1ccc(C2CC2C(=O)N/N=C\\c2ccc[nH]2)cc1", "note": "(stereo not given)", "Potency": "inconclusive: 0.891 µM [inhibitor, full curve, poor fit]"}, {"smiles": "C=C(C)COc1ccc(-c2[nH]ncc2Oc2cccc(OC)c2)c(O)c1", "Potency": "inconclusive: 28.2 µM [inhibitor, single point]"}, {"smiles": "O=C(NC(=S)Nc1cccc(NC(=S)NC(=O)c2ccccc2)c1)c1ccccc1", "Potency": "inconclusive: 3.98 µM [inhibitor, full curve]"}, {"smiles": "O=C(NCc1ccco1)c1cc(-c2cccc(Cl)c2)on1", "Potency": "inconclusive: 3.98 µM [inhibitor, full curve, poor fit]"}, {"smiles": "CC1=CC2C(C(O)CC3(C)C2CC(C)C32OCOC23COCO3)C2(C)C/C(=C\\O)C(=O)C=C12", "note": "(stereo not given)", "Potency": "inconclusive: 2 µM [inhibitor, full curve]"}, {"smiles": "Cc1ccc(NNC(=O)c2ccno2)cc1C", "Potency": "inconclusive: 28.2 µM [inhibitor, single point]"}, {"smiles": "C=CCN1C(=NC(=O)COc2ccc(Cl)cc2)SC2CS(=O)(=O)CC21", "note": "(stereo not given)", "Potency": "inactive"}, {"smiles": "OC(CN1CCN(c2ccccn2)CC1)Cn1c2ccccc2c2ccccc21", "note": "(stereo not given)", "Potency": "inconclusive: 10 µM [inhibitor, single point]"}, {"smiles": "COc1ccc(C(=O)NCCn2cc(SCc3c(F)cccc3Cl)c3ccccc32)cc1", "Potency": "inactive"}, {"smiles": "O=c1[nH]c2cc(Br)ccc2n2cccc12", "Potency": "inactive"}, {"smiles": "CCc1cc(C(=O)N=Nc2c(O)[nH]c3ccc([N+](=O)[O-])cc23)c2ccccc2n1", "Potency": "inconclusive: 2.51 µM [inhibitor, partial curve, poor fit]"}, {"smiles": "O=C(CN1C(=O)COc2ccc(S(=O)(=O)NC3CCCC3)cc21)NCc1ccc(Cl)cc1", "Potency": "inactive"}, {"smiles": "O=C(CC1CCCCC1)Nc1nc2ccccc2s1", "Potency": "inactive"}, {"smiles": "COc1ccc(/C=C/C(=O)c2ccc(C(=O)/C=C/c3ccc(OC)c(OC)c3)cc2)cc1OC", "Potency": "inconclusive: 11.2 µM [inhibitor, single point]"}, {"smiles": "O=C(c1ccc([N+](=O)[O-])cc1)N1CCC(Cc2ccccc2)CC1", "Potency": "inactive"}, {"smiles": "COc1cc2[nH]c(=O)n(CCCC(=O)NCCc3ccccc3)c(=O)c2cc1OC", "Potency": "inactive"}, {"smiles": "COc1ccc(OCCCNCCc2ccccc2)cc1", "Potency": "inactive"}, {"smiles": "CC(=O)Nc1cccc(-c2ccnc3c2CC(C)(C(=O)Nc2ccc4c(c2)OCO4)O3)c1", "note": "(stereo not given)", "Potency": "inconclusive: 2.24 µM [inhibitor, full curve, poor fit]"}, {"smiles": "CCC1COCCS(=O)(=O)N1Cc1cccc(C(F)(F)F)c1", "note": "(stereo not given)", "Potency": "inconclusive: 31.6 µM [inhibitor, single point]"}, {"smiles": "Oc1c(C(c2ccccn2)N2CCC(Cc3ccccc3)CC2)cc(Cl)c2cccnc12", "note": "(stereo not given)", "activity change, negative = inhibition": "inactive: -6.01% [at 7.66 µM]"}, {"smiles": "COCCNCCOCCOc1ccc(Cl)c(C)c1", "Potency": "inactive"}, {"smiles": "O=C(NC(=S)NCc1ccccc1)c1cccc([N+](=O)[O-])c1", "Potency": "inconclusive: 8.91 µM [inhibitor, partial curve, poor fit]"}, {"smiles": "COc1ccc(C/C(C)=N/NC(=S)Nc2ccccc2F)cc1", "Potency": "inconclusive: 28.2 µM [inhibitor, single point]"}, {"smiles": "COC(=O)[C@@]12C[C@@H](CC(=O)NCCCN3CCCC3=O)C(=O)N(Cc3ccc4c(c3)OCO4)C1=CCC(C)(C)C2", "Potency": "inactive"}, {"smiles": "CCCCCc1c(-c2ccccc2OC)ncn1CCc1ccccc1OC", "Potency": "inconclusive: 28.2 µM [inhibitor, single point]"}, {"smiles": "COc1ccc(C(=O)Oc2c(Sc3ccc(Cl)cc3)c(C)nn2C(C)(C)C)cc1OC", "Potency": "inactive"}, {"smiles": "CC(=O)N1CCN(c2cc(N3CCCC3)c(F)cc2[N+](=O)[O-])CC1", "Potency": "inconclusive: 8.91 µM [inhibitor, partial curve, poor fit]"}, {"smiles": "CC(NCc1ccc(-c2ccccc2)cc1)C(O)c1ccccc1", "note": "(stereo not given)", "Potency": "inconclusive: 14.1 µM [inhibitor, single point]"}, {"smiles": "CCc1ccccc1NC(=O)Cn1c(=O)n(CCCS(=O)(=O)C2CCCCC2)c(=O)c2ccccc21", "Potency": "inactive"}, {"smiles": "O=C(Oc1cccc(C(=S)N2CCOCC2)c1)c1ccc([N+](=O)[O-])cc1[N+](=O)[O-]", "Potency": "inactive"}, {"smiles": "COc1cc2c(cc1OC)C(COc1ccccc1OC)N(C(=O)C(C)C)CC2", "note": "(stereo not given)", "Potency": "inactive"}, {"smiles": "CC1(C(=O)Nc2ccc(Cl)c(Cl)c2)CCN1C(=O)Cc1cccc2ccccc12", "note": "(stereo not given)", "Potency": "inconclusive: 28.2 µM [inhibitor, single point]"}, {"smiles": "O=c1c2c(-c3ccccc3)csc2ncn1/N=C/c1cccc([N+](=O)[O-])c1O", "Potency": "inconclusive: 10 µM [inhibitor, partial curve, poor fit]"}, {"smiles": "O=C(N/N=C/c1ccc(OC(=O)c2ccccc2Cl)cc1)c1ccccn1", "Potency": "inactive"}]}]}
